Data as given in patent US20260232820A1 (MEDICENNA THERAPEUTICS, published 2026).

Target: T1, mouse PD-1 on Mouse PD-1 T&U Effector Cells (mouse, UniProt Q02242 25-288)
T1 sequence (looked up): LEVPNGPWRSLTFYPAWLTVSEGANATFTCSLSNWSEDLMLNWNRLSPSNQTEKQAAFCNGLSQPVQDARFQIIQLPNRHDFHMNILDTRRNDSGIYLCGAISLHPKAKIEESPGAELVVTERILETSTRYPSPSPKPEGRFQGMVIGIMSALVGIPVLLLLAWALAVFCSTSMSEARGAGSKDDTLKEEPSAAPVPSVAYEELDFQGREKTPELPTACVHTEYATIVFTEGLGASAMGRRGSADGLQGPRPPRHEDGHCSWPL
Test: cell-based or functional assay

B1: Anti-mPD1-MDNA132.15 (1:1 KIH) (other)
heavy 1: EVQLQESGPGLVKPSQSLSLTCSVTGYSITSSYRWNWIRKFPGNRLEWMGYINSAGISNYNPSLKRRISITRDTSKNQFFLQVNSVTTEDAATYYCARSDNMGTTPFTYWGQGTLVTVSSASTKGPSVFPLAPSSKSTSGGTAALGCLVKDYFPEPVTVSWNSGALTSGVHTFPAVLQSSGLYSLSSVVTVPSSSLGTQTYICNVNHKPSNTKVDKKVEPKSCDKTHTCPPCPAPELLGGPSVFLFPPKPKDTLMISRTPEVTCVVVDVSHEDPEVKFNWYVDGVEVHNAKTKPREEQYASTYRVVSVLTVLHQDWLNGKEYKCKVSNKALPAPIEKTISKAKGQPREPQVYTLPPCRDELTKNQVSLWCLVKGFYPSDIAVEWESNGQPENNYKTTPPVLDSDGSFFLYSKLTVDKSRWQQGNVFSCSVMHEALHNHYTQKSLSLSPGGGGGSGGGGSGGGGSPGPVPPSTAHRELIRELVNITQNQKAPLCNGSMVWSINLTAGMYCAALESLINVSGCSAIEKTQRMLSGFCPHKVSAGQFSSLHVTGRKIEVAQFVKDLLLHLKKLFKEGQFN
heavy 2: EVQLQESGPGLVKPSQSLSLTCSVTGYSITSSYRWNWIRKFPGNRLEWMGYINSAGISNYNPSLKRRISITRDTSKNQFFLQVNSVTTEDAATYYCARSDNMGTTPFTYWGQGTLVTVSSASTKGPSVFPLAPSSKSTSGGTAALGCLVKDYFPEPVTVSWNSGALTSGVHTFPAVLQSSGLYSLSSVVTVPSSSLGTQTYICNVNHKPSNTKVDKKV[letters of human IgG1 Fc with changes not shown]
light: DIVMTQGTLPNPVPSGESVSITCRSSKSLLYSDGKTYLNWYLQRPGQSPQLLIYWMSTRASGVSDRFSGSGSGTDFTLKISGVEAEDVGIYYCQQGLEFPTFGGGTKLELKRTVAAPSVFIFPPSDEQLKSGTASVVCLLNNFYPREAKVQWKVDNALQSGNSQESVTEQDSKDSTYSLSSTLTLSKADYEKHKVYACEVTHQGLSSPVTKSFNRGEC
- EC50, mouse PD-1/PD-L1 Blockade Bioassay (RLU of NFAT-luciferase reporter against concentration, 4-parameter logistic curve): 6 nM
